Measured values reported in the supplement of paper PMC5790926.

Test system: E-S-FLU (Zaire C15 EBOV-GP pseudotyped S-FLU) in MDCK-SIAT1 cells
Test: IC50 inhibition of E-S-FLU (EBOV-GP pseudotyped influenza) infection
Protocol: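 MDCK-SIAT1 cells were pretreated for 3 h with two-fold drug dilutions, then exposed overnight to a single-cycle eGFP reporter particle coated with the named glycoprotein; eGFP read on fixed cells. Mostly one titration per compound; only inhibitors are listed.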

`COc1ccc2c(c1)[C@]13CCCC[C@@H]1[C@H](C2)N(C)CC3` [Dextromethorphan hydrobromide monohydrate] was tested, and the “IC50 inhibition of E-S-FLU” value was 47.2 µM.

For `CCN(CC)CCOC(=O)C1(C2CCCCC2)CCCCC1` [Dicyclomine hydrochloride], the “IC50 inhibition of E-S-FLU” value was 33.6 µM.

In the case of `CN1C[C@H](C(=O)N[C@]2(C)O[C@@]3(O)[C@@H]4CCCN4C(=O)[C@H](Cc4ccccc4)N3C2=O)C[C@@H]2c3cccc4[nH]cc(c34)C[C@H]21` [Dihydro ergotamine methanesulfonate], the “IC50 inhibition of E-S-FLU” value is reported as 30.3 µM.

For `COc1cc(C(=O)OCCCN2CCCN(CCCOC(=O)c3cc(OC)c(OC)c(OC)c3)CC2)cc(OC)c1OC` [Dilazep Dihydrochloride], the “IC50 inhibition of E-S-FLU” value was 34.1 µM.

With `COc1cc2nc(N3CCN(C(=O)C4COc5ccccc5O4)CC3)nc(N)c2cc1OC` (stereo not given) [Doxazosin mesylate] the “IC50 inhibition of E-S-FLU” value was 42.9 µM.

In the case of `CN(C)CCC=C1c2ccccc2COc2ccccc21` [Doxepin hydrochloride], the “IC50 inhibition of E-S-FLU” value is reported as 38.5 µM.

With `CC(C)C[C@H](NC(=O)[C@H]1O[C@@H]1C(=O)O)C(=O)NCCCCN=C(N)N` [E64] the “IC50 inhibition of E-S-FLU” value was 77.2 µM.

With `CC(C)(C)c1ccc(C(=O)CCCN2CCC(OC(c3ccccc3)c3ccccc3)CC2)cc1` [Ebastine] the “IC50 inhibition of E-S-FLU” value was 5.33 µM.

For `Cc1c2ccncc2c(C)c2c1[nH]c1ccccc12` [Ellipticine], the “IC50 inhibition of E-S-FLU” value was 3.3 µM.

In the case of `CCN(CC)C(C)CN1c2ccccc2Sc2ccccc21` (stereo not given) [Ethopropazine HCl], the “IC50 inhibition of E-S-FLU” value is reported as 12.7 µM.

In the case of `COc1cccc2c1[C@@H]1CN(CCCCn3c(=O)[nH]c4c(sc5ncc(-c6ccccc6)nc54)c3=O)C[C@@H]1CO2` [Fiduxosin hydrochloride], the “IC50 inhibition of E-S-FLU” value is reported as 6.25 µM.

With `OCCN1CCN(CCCN2c3ccccc3Sc3ccc(C(F)(F)F)cc32)CC1` [Fluphenazine dihydrochloride] the “IC50 inhibition of E-S-FLU” value was 13.6 µM.

`O=C1NCN(c2ccccc2)C12CCN(CCCC(c1ccc(F)cc1)c1ccc(F)cc1)CC2` [Fluspirilene] was tested, and the “IC50 inhibition of E-S-FLU” value was 7.4 µM.

In the case of `COCCCC/C(=N\OCCN)c1ccc(C(F)(F)F)cc1` [Fluvoxamine maleate], the “IC50 inhibition of E-S-FLU” value is reported as 44.9 µM.

For `CN(C)c1ccccc1CN1CCCN(Cc2ccccc2N(C)C)C1c1ccncc1` [GANT61], the “IC50 inhibition of E-S-FLU” value was 11 µM.

In the case of `O=c1cc2c(=O)oc3cc(O)c(O)oc3c2c(O)c1O` [Galloflavin potassium], the “IC50 inhibition of E-S-FLU” value is reported as 36 µM.

With `O=C(CCCN1CCC(O)(c2ccc(Cl)cc2)CC1)c1ccc(F)cc1` [Haloperidol] the “IC50 inhibition of E-S-FLU” value was 70.8 µM.

With `Fc1ccc(CN(C2=NCCN2)c2c(Cl)cccc2Cl)cc1` [IMID-4F hydrochloride] the “IC50 inhibition of E-S-FLU” value was 13.4 µM.

For `CC(C(O)c1ccc(O)cc1)N1CCC(Cc2ccccc2)CC1` (stereo not given) [Ifenprodil tartrate], the “IC50 inhibition of E-S-FLU” value was 66.8 µM.

`CNC1CC(c2ccc(Cl)c(Cl)c2)c2ccccc21` (stereo not given) [Indatraline HCl] was tested, and the “IC50 inhibition of E-S-FLU” value was 9.1 µM.

For `CC(C)NC(C)Cc1ccc(I)cc1` (stereo not given) [Iofetamine HCl], the “IC50 inhibition of E-S-FLU” value was 96.6 µM.

For `CC(=O)N1CCN(c2ccc(OCC3COC(Cn4ccnc4)(c4ccc(Cl)cc4Cl)O3)cc2)CC1` (stereo not given) [Ketoconazole], the “IC50 inhibition of E-S-FLU” value was 77.3 µM.

For `c1ccc(CN2CCC3(CCCc4ccccc43)CC2)cc1` [L-687,384 HCl], the “IC50 inhibition of E-S-FLU” value was 17 µM.

In the case of `Ic1ccccc1CNC1C2CCN(CC2)C1C(c1ccccc1)c1ccccc1` [L-703,606 oxalate salt hydrate], the “IC50 inhibition of E-S-FLU” value is reported as 1.7 µM.

For `OC1(c2ccc(Cl)cc2)CCN(Cc2c[nH]c3ccccc23)CC1` [L-741,626], the “IC50 inhibition of E-S-FLU” value was 57.1 µM.

With `CN(C)C(=O)C(CCN1CCC(O)(c2ccc(Cl)cc2)CC1)(c1ccccc1)c1ccccc1` [Loperamide HCl] the “IC50 inhibition of E-S-FLU” value was 16.8 µM.

In the case of `CN1CCN(C2=Nc3ccccc3Oc3ccc(Cl)cc32)CC1` [Loxapine succinate], the “IC50 inhibition of E-S-FLU” value is reported as 100 µM.

With `CN(c1nc2ccccc2s1)C1CCN(C[C@H](O)COc2ccc(F)c(F)c2)CC1` [Lubeluzole dihydrochloride] the “IC50 inhibition of E-S-FLU” value was 30.2 µM.

In the case of `CNCCCC12CCC(c3ccccc31)c1ccccc12` [Maprotiline HCl], the “IC50 inhibition of E-S-FLU” value is reported as 5.4 µM.

With `CN1C[C@H](CNC(=O)OCc2ccccc2)C[C@@H]2c3cccc4c3c(cn4C)C[C@H]21` [Metergoline] the “IC50 inhibition of E-S-FLU” value was 8.2 µM.

Counter-ions that a name gives are not always drawn. Inhibition of entry of single-cycle reporter particles into MDCK-SIAT1 cells, 3 h drug pretreatment, overnight read-out. IC50, lower = stronger. No active / inactive call; only inhibitors are listed. Mostly one titration per compound.
